# Results from the supplement of paper PMC8728848.
# Some of the results follow.
# B1: RBMC1 (Vibrio cholerae) (protein)
# chain: QQSQRVVTADNLMYLRSGFAIDAIGTTVNNLVGGPVQGTNGGVLRAPIALDQLQSVEVTSGLYNWGGYHIVAIKFTMKDGSSVLLGSTHYASNKKVETYTVPQGKRIKQINVWTGGWLVEGFQFVY
# What was measured:
# Test in all cases: glycan array binding signal (z-score within array); higher = stronger binding
# Details in all cases: glycan notation: IUPAC condensed, linker removed
# Neu5Ac(a2-8)Neu5Ac = target: Neu5Ac(a2-8)Neu5Ac
# How it was run: (§1)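 Glycan array binding is given as a within-array Z-score, which can be read as non-binding when negative. The arrays, 3228 of them, came from the Consortium for Functional Glycomics database and were retained only where the protein sequence was available. Z-scores were averaged across arrays of the same protein sequence at different concentrations or buffers and across linkers.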
# [1] = target: Neu5Ac(a2-8)Neu5Ac(a2-3)Gal(b1-3)GalNAc(b1-4)[Neu5Ac(a2-3)]Gal(b1-4)Glc
# How it was run: as §1
# [2] = target: Neu5Ac(a2-8)Neu5Ac(a2-3)Gal(b1-3)GalNAc(b1-4)[Neu5Ac(a2-8)Neu5Ac(a2-3)]Gal(b1-4)Glc
# How it was run: as §1
# [3] = target: Neu5Ac(a2-8)Neu5Ac(a2-3)Gal(b1-4)Glc
# How it was run: as §1
# [4] = target: Neu5Ac(a2-8)Neu5Ac(a2-3)Gal(b1-4)GlcNAc
# How it was run: as §1
# [5] = target: Neu5Ac(a2-8)Neu5Ac(a2-3)[Gal(b1-3)GalNAc(b1-4)]Gal(b1-4)Glc
# How it was run: as §1
# [6] = target: Neu5Ac(a2-8)Neu5Ac(a2-3)[GalNAc(b1-4)]Gal(b1-4)Glc
# How it was run: as §1
# [7] = target: Neu5Ac(a2-8)Neu5Ac(a2-8)Neu5Ac
# How it was run: as §1
# [8] = target: Neu5Ac(a2-8)Neu5Ac(a2-8)Neu5Ac(a2-3)Gal(b1-4)Glc
# How it was run: as §1
# [9] = target: Neu5Ac(a2-8)Neu5Ac(a2-8)Neu5Ac(a2-3)[Gal(b1-3)GalNAc(b1-4)]Gal(b1-4)Glc
# How it was run: as §1
# [10] = target: Neu5Ac(a2-8)Neu5Ac(a2-8)Neu5Ac(a2-3)[GalNAc(b1-4)]Gal(b1-4)Glc
# How it was run: as §1
# [11] = target: Neu5Ac(a2-8)Neu5Ac(a2-8)Neu5Ac(a2-8)Neu5Ac(a2-3)[GalNAc(b1-4)]Gal(b1-4)Glc
# How it was run: as §1
# [12] = target: Neu5Ac(a2-8)Neu5Gc(a2-3)Gal(b1-4)GlcNAc
# How it was run: as §1
# [13] = target: Neu5Ac(b2-6)Gal(b1-4)GlcNAc
# How it was run: as §1
# Neu5Ac(b2-6)GalNAc = target: Neu5Ac(b2-6)GalNAc
# How it was run: as §1
# [14] = target: Neu5Ac9Ac(a2-3)Gal(b1-3)GlcNAc
# How it was run: as §1
# [15] = target: Neu5Ac9Ac(a2-3)Gal(b1-4)GlcNAc
# How it was run: as §1
# [16] = target: Neu5Ac9Ac(a2-6)Gal(b1-4)GlcNAc
# How it was run: as §1
# [17] = target: Neu5Gc(a2-3)Gal(b1-3)GlcNAc
# How it was run: as §1
# [18] = target: Neu5Gc(a2-3)Gal(b1-3)[Fuc(a1-4)]GlcNAc
# How it was run: as §1
# Neu5Gc(a2-3)Gal(b1-4)Glc = target: Neu5Gc(a2-3)Gal(b1-4)Glc
# How it was run: as §1
# [19] = target: Neu5Gc(a2-3)Gal(b1-4)GlcNAc
# How it was run: as §1
# [20] = target: Neu5Gc(a2-3)Gal(b1-4)GlcNAc(b1-3)Gal(b1-4)GlcNAc(b1-2)Man(a1-3)[Neu5Gc(a2-3)Gal(b1-4)GlcNAc(b1-3)Gal(b1-4)GlcNAc(b1-2)Man(a1-6)]Man(b1-4)GlcNAc(b1-4)GlcNAc
# How it was run: as §1
# [21] = target: Neu5Gc(a2-3)Gal(b1-4)[Fuc(a1-3)]GlcNAc
# How it was run: as §1
# [22] = target: Neu5Gc(a2-6)Gal(b1-4)GlcNAc
# How it was run: as §1
# Neu5Gc(a2-6)GalNAc = target: Neu5Gc(a2-6)GalNAc
# How it was run: as §1
# [23] = target: Neu5Gc(a2-8)Neu5Ac(a2-3)Gal(b1-4)GlcNAc
# How it was run: as §1
# [24] = target: Neu5Gc(a2-8)Neu5Gc(a2-3)Gal(b1-4)GlcNAc
# How it was run: as §1
# [25] = target: Neu5Gc(a2-8)Neu5Gc(a2-3)Gal(b1-4)GlcNAc(b1-3)Gal(b1-4)GlcNAc
# How it was run: as §1
# [26] = target: Neu5Gc(a2-8)Neu5Gc(a2-6)Gal(b1-4)GlcNAc
# How it was run: as §1
# [27] = target: Neu5Gc(b2-6)Gal(b1-4)GlcNAc
# How it was run: as §1
binder,measurement,setting,value
B1,glycan array binding signal (z-score),Neu5Ac(a2-8)Neu5Ac,0.122
same,glycan array binding signal (z-score),[1],-0.379
same,glycan array binding signal (z-score),[2],-0.293
same,glycan array binding signal (z-score),[3],-0.226
same,glycan array binding signal (z-score),[4],-0.382
same,glycan array binding signal (z-score),[5],-0.275
same,glycan array binding signal (z-score),[6],-0.339
same,glycan array binding signal (z-score),[7],-0.256
same,glycan array binding signal (z-score),[8],-0.137
same,glycan array binding signal (z-score),[9],-0.28
same,glycan array binding signal (z-score),[10],-0.21
same,glycan array binding signal (z-score),[11],-0.417
same,glycan array binding signal (z-score),[12],-0.314
same,glycan array binding signal (z-score),[13],-0.304
same,glycan array binding signal (z-score),Neu5Ac(b2-6)GalNAc,-0.428
same,glycan array binding signal (z-score),[14],-0.194
same,glycan array binding signal (z-score),[15],-0.303
same,glycan array binding signal (z-score),[16],-0.373
same,glycan array binding signal (z-score),[17],-0.224
same,glycan array binding signal (z-score),[18],-0.039
same,glycan array binding signal (z-score),Neu5Gc(a2-3)Gal(b1-4)Glc,-0.097
same,glycan array binding signal (z-score),[19],-0.337
same,glycan array binding signal (z-score),[20],1.56
same,glycan array binding signal (z-score),[21],-0.205
same,glycan array binding signal (z-score),[22],-0.349
same,glycan array binding signal (z-score),Neu5Gc(a2-6)GalNAc,-0.17
same,glycan array binding signal (z-score),[23],-0.406
same,glycan array binding signal (z-score),[24],-0.358
same,glycan array binding signal (z-score),[25],-0.205
same,glycan array binding signal (z-score),[26],-0.356
same,glycan array binding signal (z-score),[27],-0.184
